Results on 77 variants are retold here after a collection of fitness landscapes (doi:10.1016/j.celrep.2020.107928).

The chains are these.
B1: Caulobacter ParB omega fusion; a variant is named by its letters at X, in order, B8GW30 (parent)
chain: MESVVVGEPGMSEGRRGLGRGLSALLGEVDAAPAQAPGEQLGGSREAPIEILQRNPDQPRRTFREEDLEDLSNSIREKGVLQPILVRPSPDTAGEYQIVAGERAWRAAQRAGLKTVPIMVRELDDLAVLEIGIIENVQRADLNVLEEALSYKVLMEKFERTQENIAQTIGKSXSHVANXMRLLXLPDEVQSYLVSGELTAXHARAIAAAADPVALAKQIIEGGLSVRETEALARKAPNLSAGKSKGGRPPRVKDTDTQALESDLSSVLGLDVSIDHRGSTGTLTITYATLEQLDDLCNRLTRGI

The full ranking holds about 81,000 sequences; the median of “one-hybrid fitness for binding NBS DNA” is about -0.1, and the highest 2% start at about 0.36. This is one part of the list.

In the experiment the parent is B1. As to the kind of experiment: one-hybrid fitness for binding NBS DNA (the Noc-binding site; scaled: cognate 1, non-cognate 0); higher = stronger binding. To be noted: with NBS DNA site. In a few lines:
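Selection: bacterial one-hybrid in E. coli USO, HIS3 reporter with the site 19 bp from the promoter, 48 hours at 37°C on M9-minus-histidine plus 0.1 mM IPTG and 5 mM 3-AT. Libraries were Caulobacter ParB with four randomised specificity codons, sequenced on Illumina before and after selection. Fitness is the rescaled log change in variant-to-wild-type read ratio, anchored to the cognate and non-cognate sites.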
As to QLVG, the “one-hybrid fitness for binding NBS DNA” value was at most 0.2. Consider IFKD, for which the “one-hybrid fitness for binding NBS DNA” value is at most 0.2. To LLVI belongs at most 0.2; to MDKR, at most 0.2; to QIWA, at most 0.2. In the case of RHCC it was at most 0.2. As to DRHK, the “one-hybrid fitness for binding NBS DNA” value was at most 0.2. In the case of NGFT, the “one-hybrid fitness for binding NBS DNA” value is at most 0.2. As for SVLG, the “one-hybrid fitness for binding NBS DNA” value was at most 0.2. To PMWM belongs at most 0.2; to GAVD, at most 0.2; to EQLL, at most 0.2. As for MKNR, the “one-hybrid fitness for binding NBS DNA” value is at most 0.2.

With ETQL, the “one-hybrid fitness for binding NBS DNA” value is at most 0.2. Turning to VVYT, the “one-hybrid fitness for binding NBS DNA” value was at most 0.2. Take VSSM: the “one-hybrid fitness for binding NBS DNA” value was at most 0.2. Take PGLF: the “one-hybrid fitness for binding NBS DNA” value was at most 0.2. In the case of KEPK, the “one-hybrid fitness for binding NBS DNA” value is at most 0.2. Regarding HWAA, the “one-hybrid fitness for binding NBS DNA” value was at most 0.2. In the case of SWEW it was at most 0.2; in that of SFPP, at most 0.2; in that of AHDC, at most 0.2.

For the variant RDLI, the “one-hybrid fitness for binding NBS DNA” value was at most 0.2. For VAVR, the “one-hybrid fitness for binding NBS DNA” value was at most 0.2. In the case of VTTM, the “one-hybrid fitness for binding NBS DNA” value is at most 0.2. TMRA: the “one-hybrid fitness for binding NBS DNA” value is at most 0.2. On to NLMG, for which the “one-hybrid fitness for binding NBS DNA” value was at most 0.2. With SNDI, the “one-hybrid fitness for binding NBS DNA” value was at most 0.2. In the case of EIMC, the “one-hybrid fitness for binding NBS DNA” value was at most 0.2. Take QGPI: the “one-hybrid fitness for binding NBS DNA” value is at most 0.2. As to ANEK, the “one-hybrid fitness for binding NBS DNA” value is at most 0.2. On to ADDM, for which the “one-hybrid fitness for binding NBS DNA” value is at most 0.2.

With VTAL, the “one-hybrid fitness for binding NBS DNA” value was at most 0.2. As to QSTP, the “one-hybrid fitness for binding NBS DNA” value is at most 0.2. Take YAKV: the “one-hybrid fitness for binding NBS DNA” value was at most 0.2. TVWH: the “one-hybrid fitness for binding NBS DNA” value was at most 0.2. In the case of APKQ it was at most 0.2; in that of EYFF, at most 0.2; in that of KKVR, at most 0.2. YRSY: the “one-hybrid fitness for binding NBS DNA” value is at most 0.2. In the case of PFVV it was at most 0.2. Turning to LGCS, the “one-hybrid fitness for binding NBS DNA” value is at most 0.2. On to FALI, for which the “one-hybrid fitness for binding NBS DNA” value was at most 0.2. Turning to RPYM, the “one-hybrid fitness for binding NBS DNA” value is at most 0.2.

Regarding QTMH, the “one-hybrid fitness for binding NBS DNA” value turned out to be 0.263. As to AMSM, the “one-hybrid fitness for binding NBS DNA” value is at most 0.2. In the case of IEIF it was at most 0.2; in that of TKPF, at most 0.2; in that of QRYK, 0.381. YTMR: the “one-hybrid fitness for binding NBS DNA” value is at most 0.2. As to NKQN, the “one-hybrid fitness for binding NBS DNA” value is at most 0.2.

As to HPTS, the “one-hybrid fitness for binding NBS DNA” value was at most 0.2.

Consider RYCV, for which the “one-hybrid fitness for binding NBS DNA” value is at most 0.2. In the case of ANII it was at most 0.2; in that of FKAS, at most 0.2. As to ASMD, the “one-hybrid fitness for binding NBS DNA” value is at most 0.2. Take IRWG: the “one-hybrid fitness for binding NBS DNA” value was at most 0.2. Regarding RHVH, the “one-hybrid fitness for binding NBS DNA” value was at most 0.2. For the variant QRKN, the “one-hybrid fitness for binding NBS DNA” value was 0.573. In the case of CPPQ, the “one-hybrid fitness for binding NBS DNA” value was at most 0.2. Turning to GAES, the “one-hybrid fitness for binding NBS DNA” value was at most 0.2.

Consider PFTM, for which the “one-hybrid fitness for binding NBS DNA” value amounted to 0.318. Take ALPW: the “one-hybrid fitness for binding NBS DNA” value is at most 0.2.

Take RVQR: the “one-hybrid fitness for binding NBS DNA” value came out at 0.415.

As to QYYV, the “one-hybrid fitness for binding NBS DNA” value was at most 0.2.

As to IFGR, the “one-hybrid fitness for binding NBS DNA” value was at most 0.2.

Regarding RDPA, the “one-hybrid fitness for binding NBS DNA” value is at most 0.2. Turning to VTKS, the “one-hybrid fitness for binding NBS DNA” value is at most 0.2. For HDDI, the “one-hybrid fitness for binding NBS DNA” value was at most 0.2. With AAPV, the “one-hybrid fitness for binding NBS DNA” value was at most 0.2. Turning to AYPC, the “one-hybrid fitness for binding NBS DNA” value was at most 0.2. To MRLW belongs at most 0.2; to VVTW, at most 0.2; to CFRY, at most 0.2. For RQTF, the “one-hybrid fitness for binding NBS DNA” value was at most 0.2. As to VAPW, the “one-hybrid fitness for binding NBS DNA” value is at most 0.2.

PLME: the “one-hybrid fitness for binding NBS DNA” value was at most 0.2.
